We go through 30 compounds from the supplement of paper PMC4604168 (melanoma cell lines).

This is one part of the list. Most values come without repeats; read them as rough.
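Note: cell number obtained by counting DAPI-stained nuclei in high-throughput microscope images with image analysis software, screen run in 1,536-well plates.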

One assay has as its system WM3526. In words: cell count relative to DMSO control; melanoma cells; higher = more viable cells. The settings on record: library dose: low library concentration; 72 h.
With `O=C(Nc1cc(C(F)(F)F)cc(C(F)(F)F)c1)c1cc(Cl)ccc1O` + NC1(c2ccc(-c3nc4ccn5c(=O)[nH]nc5c4cc3-c3ccccc3)cc2)CCC1 [MK2206] (first compound 0.016 µM, partner dose 0.4 µM), the cell count was determined as 69.5%. In the case of `O=C(Nc1cc(C(F)(F)F)cc(C(F)(F)F)c1)c1cc(Cl)ccc1O` + O=c1[nH]nc(Sc2ncc([N+](=O)[O-])s2)n1-c1ccc2c(c1)OCCO2 [BI78D3] (first compound 0.016 µM, partner dose 0.2 µM), the cell count was determined as 101%. Same read-out and setting: with `O=C(O)[C@@H]1[O][Sb](=[O])([O][Sb]2(=[O])[O][C@H]([C@H](O)CO)[C@H](O)[C@H](C(=O)O)[O]2)[O][C@H]([C@H](O)CO)[C@@H]1O` (stereo not given in full) [stibogluconate] + Nc1cccc2c1CN(C1CCC(=O)NC1=O)C2=O [lenalidomide] (first compound 2 µM, partner dose 1 µM) the figure was 95.3%. Same read-out and setting: with `Cn1nnc2c(C(N)=O)ncn2c1=O` [temozolomide] + CN(NC(=O)CC(=O)NN(C)C(=S)c1ccccc1)C(=S)c1ccccc1 [STA4783] (first compound 2 µM, partner dose 0.006 µM) the figure was 110%.

A further assay has as its system WM3619. The description is as above. Conditions: library dose: low library concentration; 72 h.
`O=C(O)[C@@H]1[O][Sb](=[O])([O][Sb]2(=[O])[O][C@H]([C@H](O)CO)[C@H](O)[C@H](C(=O)O)[O]2)[O][C@H]([C@H](O)CO)[C@@H]1O` (stereo not given in full) [stibogluconate] + CN(C)S(=O)(=O)c1ccc2c(c1)/C(=C/c1cc3c([nH]1)CCCC3)C(=O)N2 [SU6656] (first compound 2 µM, partner dose 0.4 µM): the cell count amounted to 132%.

For the compound `O=C(O)c1ccc2c(c1)nc(Nc1cccc(Cl)c1)c1ccncc12` + C[C@]1(c2nc3c(C(N)=O)cccc3[nH]2)CCCN1 [Veliparib] (first compound 0.4 µM, partner dose 1.4 µM), the cell count worked out at 82.9%. On the same count and under the same terms, then `O=C(Nc1cc(C(F)(F)F)cc(C(F)(F)F)c1)c1cc(Cl)ccc1O` + NC(=O)c1ccc(N(C(N)=O)c2c(F)cccc2F)nc1-c1ccc(F)cc1F [VX702] (first compound 0.016 µM, partner dose 0.4 µM), with 97.9%; and `O=C(Nc1cc(C(F)(F)F)cc(C(F)(F)F)c1)c1cc(Cl)ccc1O` + Cn1cnc2c(F)c(Nc3ccc(Br)cc3Cl)c(C(=O)NOCCO)cc21 [selumetinib] (first compound 0.016 µM, partner dose 0.015 µM), with 111%; and `O=C(O)c1ccc2c(c1)nc(Nc1cccc(Cl)c1)c1ccncc12` + O=C1NC(=O)/C(=C/c2ccc(-c3ccc(F)cc3O)o2)S1 [AS252424] (first compound 0.4 µM, partner dose 1 µM), with 106%. The same measure, in the same setting: then `O=C(Nc1cc(C(F)(F)F)cc(C(F)(F)F)c1)c1cc(Cl)ccc1O` + O=C(O)[C@@H]1[O][Sb](=[O])([O][Sb]2(=[O])[O][C@H]([C@H](O)CO)[C@H](O)[C@H](C(=O)O)[O]2)[O][C@H]([C@H](O)CO)[C@@H]1O [stibogluconate] (first compound 0.016 µM, partner dose 2 µM), with 92.3%; and `O=C(O)c1ccc2c(c1)nc(Nc1cccc(Cl)c1)c1ccncc12` + OCc1c[nH]c2ccccc12 [Indole-3-carbinol] (first compound 0.4 µM, partner dose 0.8 µM), with 90.9%. Same read-out and setting: then `O=C(Nc1cc(C(F)(F)F)cc(C(F)(F)F)c1)c1cc(Cl)ccc1O` + COc1cc2ncnc(Nc3ccc(Oc4ccccc4)cc3)c2cc1OC [SrcI1] (first compound 0.016 µM, partner dose 2 µM), with 94.2%; and `O=C(O)[C@@H]1[O][Sb](=[O])([O][Sb]2(=[O])[O][C@H]([C@H](O)CO)[C@H](O)[C@H](C(=O)O)[O]2)[O][C@H]([C@H](O)CO)[C@@H]1O` (stereo not given in full) [stibogluconate] + COc1cc(Nc2ncc(F)c(Nc3ccc4c(n3)NC(=O)C(C)(C)O4)n2)cc(OC)c1OC [Tamatinib] (first compound 2 µM, partner dose 0.4 µM), with 96.1%; and `O=C(Nc1cc(C(F)(F)F)cc(C(F)(F)F)c1)c1cc(Cl)ccc1O` + CC1(C)CCC(c2ccc(Cl)cc2)=C(CN2CCN(c3ccc(C(=O)NS(=O)(=O)c4ccc(N[C@H](CCN5CCOCC5)CSc5ccccc5)c(S(=O)(=O)C(F)(F)F)c4)cc3)CC2)C1 [ABT263] (first compound 0.016 µM, partner dose 0.4 µM), with 70.4%. Compound `O=C(Nc1cc(C(F)(F)F)cc(C(F)(F)F)c1)c1cc(Cl)ccc1O` + CC(C)CCN1c2nc(Nc3cc(F)c(O)c(F)c3)ncc2N(C)C(=O)C1C [BID1870] (first compound 0.016 µM, partner dose 0.2 µM) registered a cell count of 129%. Still for that read-out and setting: with `O=C(Nc1cc(C(F)(F)F)cc(C(F)(F)F)c1)c1cc(Cl)ccc1O` + O=C(Nc1cccc(Cl)c1)Nc1ncc(CCNc2ncnc3ccsc23)s1 [SNS314] (first compound 0.016 µM, partner dose 0.0008 µM) the figure was 89.4%; with `O=C(O)[C@@H]1[O][Sb](=[O])([O][Sb]2(=[O])[O][C@H]([C@H](O)CO)[C@H](O)[C@H](C(=O)O)[O]2)[O][C@H]([C@H](O)CO)[C@@H]1O` (stereo not given in full) [stibogluconate] + CCc1ccc(CCOc2ccc(CC3SC(=O)NC3=O)cc2)nc1 [pioglitazone] (first compound 2 µM, partner dose 2 µM), 98.2%; with `O=C(O)[C@@H]1[O][Sb](=[O])([O][Sb]2(=[O])[O][C@H]([C@H](O)CO)[C@H](O)[C@H](C(=O)O)[O]2)[O][C@H]([C@H](O)CO)[C@@H]1O` (stereo not given in full) [stibogluconate] + O=C(O)C(=O)Nc1sc2c(c1C(=O)O)CCNC2 [TCS401] (first compound 2 µM, partner dose 1.66667 µM), 98.2%. The same measure, in the same setting: then `O=C(Nc1cc(C(F)(F)F)cc(C(F)(F)F)c1)c1cc(Cl)ccc1O` + CS(=O)(=O)c1ccc(C(=O)Nc2ccc(Cl)c(-c3ccccn3)c2)c(Cl)c1 [vismodegib] (first compound 0.016 µM, partner dose 1 µM), with 118%; and `O=C(Nc1cc(C(F)(F)F)cc(C(F)(F)F)c1)c1cc(Cl)ccc1O` + COc1ccc(Cl)c(Nc2nc3ccccc3nc2NS(=O)(=O)c2cccc(NC(=O)C(C)(C)N)c2)c1 [XL147] (first compound 0.016 µM, partner dose 0.8 µM), with 108%. Same read-out and setting: then `O=C(O)c1ccc2c(c1)nc(Nc1cccc(Cl)c1)c1ccncc12` + Cn1nnc2c(C(N)=O)ncn2c1=O [temozolomide] (first compound 0.4 µM, partner dose 2 µM), with 94.5%; and `O=C(O)c1ccc2c(c1)nc(Nc1cccc(Cl)c1)c1ccncc12` + CC1(C)NC(=O)N(c2ccc([N+](=O)[O-])c(C(F)(F)F)c2)C1=O [nilutamide] (first compound 0.4 µM, partner dose 1 µM), with 106%; and `O=C(O)c1ccc2c(c1)nc(Nc1cccc(Cl)c1)c1ccncc12` + Oc1nc(-c2ccc(C(F)(F)F)cc2)nc2c1CSCC2 [XAV939] (first compound 0.4 µM, partner dose 2 µM), with 109%. Take `O=C(O)[C@@H]1[O][Sb](=[O])([O][Sb]2(=[O])[O][C@H]([C@H](O)CO)[C@H](O)[C@H](C(=O)O)[O]2)[O][C@H]([C@H](O)CO)[C@@H]1O` (stereo not given in full) [stibogluconate] + C#Cc1cccc(Nc2ncnc3cc(OCCOC)c(OCCOC)cc23)c1 [erlotinib] (first compound 2 µM, partner dose 0.8 µM): the cell count was found to be 88.7%.

`O=C(O)[C@@H]1[O][Sb](=[O])([O][Sb]2(=[O])[O][C@H]([C@H](O)CO)[C@H](O)[C@H](C(=O)O)[O]2)[O][C@H]([C@H](O)CO)[C@@H]1O` (stereo not given in full) [stibogluconate] + C[C@@H]1CCN(C(=O)CC#N)C[C@@H]1N(C)c1ncnc2[nH]ccc12 [CP690550] (first compound 2 µM, partner dose 1 µM): the cell count stood at 116%.

With `O=C(O)[C@@H]1[O][Sb](=[O])([O][Sb]2(=[O])[O][C@H]([C@H](O)CO)[C@H](O)[C@H](C(=O)O)[O]2)[O][C@H]([C@H](O)CO)[C@@H]1O` (stereo not given in full) [stibogluconate] + OCc1c[nH]c2ccccc12 [Indole-3-carbinol] (first compound 2 µM, partner dose 0.8 µM), the cell count was determined as 96.9%. `O=C(Nc1cc(C(F)(F)F)cc(C(F)(F)F)c1)c1cc(Cl)ccc1O` + Clc1ccc(Nc2nnc(Cc3ccncc3)c3ccccc23)cc1 [vatalanib] (first compound 0.016 µM, partner dose 2 µM) displayed a cell count of 123%. The same measure, in the same setting: then `O=C(Nc1cc(C(F)(F)F)cc(C(F)(F)F)c1)c1cc(Cl)ccc1O` + CN(NC(=O)CC(=O)NN(C)C(=S)c1ccccc1)C(=S)c1ccccc1 [STA4783] (first compound 0.016 µM, partner dose 0.006 µM), with 86.6%; and `O=C(Nc1cc(C(F)(F)F)cc(C(F)(F)F)c1)c1cc(Cl)ccc1O` + COCC[n+]1c2c(n(Cc3cnccn3)c1C)C(=O)c1ccccc1C2=O [YM155] (first compound 0.016 µM, partner dose 0.0004 µM), with 93.9%. Same read-out and setting: with `O=C(Nc1cc(C(F)(F)F)cc(C(F)(F)F)c1)c1cc(Cl)ccc1O` + O=C(O)c1ccc2c(c1)nc(Nc1cccc(Cl)c1)c1ccncc12 [CX4945] (first compound 0.016 µM, partner dose 0.4 µM) the figure was 96.5%.
